Assay results reported in the supplement of paper PMC11417369.
This is one part of the list.

What follows are sequences tested on PfAP2-HC AP2 domain (GST-tagged) (assay: gcPBM binding intensity (ln(normalized median fluorescence intensity)); higher = stronger DNA binding).
In short: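 Binding intensity values are the highest Masliner-normalised natural-log median intensity among replicate spots of either probe orientation. The binding step lasted 1 h in 1× PBS with 1% milk, 0.2 mg/ml BSA, 0.5% salmon testes DNA and 0.03% Triton X-100, using GST-tagged P. falciparum DNA-binding domains expressed in E. coli on an Agilent 4 × 180k array of primer-extended double-stranded 36-bp intergenic genomic probes plus negative controls. Alexa488 anti-GST antibody and a 488 nm scan detected bound protein.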
In the case of “AAATATGTTTCAAAAAGTACATTTCTATCTTTTTTT [XGTACX_site7178]”, the “gcPBM binding intensity (ln)” value is reported as 9.61.
With “TGATAAAATATTAAATTATTTCTTTATTTAAAGATT [CACACA_negctrl_site370]” the “gcPBM binding intensity (ln)” value was 9.33.
“TGGTTATAATTGTACGCATGTAATTACATATTCTCT [TGCATGCA_site599]” was tested, and the “gcPBM binding intensity (ln)” value was 9.75.
“AATATGCCTCCCCAAAAAAAATATATATATATTTAT [GTGCAC_negctrl_site716]” was tested, and the “gcPBM binding intensity (ln)” value was 9.46.
“TATATTTAAATATATACACACATTATCATTTTCATA [CACACA_site1708]” was tested, and the “gcPBM binding intensity (ln)” value was 9.77.
“GAATTTTAAATAAACATATAAACAGAAAAAAAAAAA [TGCATGCA_negctrl_site149]” was tested, and the “gcPBM binding intensity (ln)” value was 9.51.
In the case of “TAGTTTTCTTAAAGATGTACTTATTAAAAATAAACT [XGTACX_site1001]”, the “gcPBM binding intensity (ln)” value is reported as 9.28.
“AATGATTGATTTTATTGTACGTACTCGGAATATGGT [XGTACX_site4976]” was tested, and the “gcPBM binding intensity (ln)” value was 9.62.
In the case of “TATAGATAAATTATTTGTACTTATAAAATTATTATA [XGTACX_site2870]”, the “gcPBM binding intensity (ln)” value is reported as 9.44.
“TACATAACTTTAATCACACACAAACAAACACATACA [CACACA_site6235]” was tested, and the “gcPBM binding intensity (ln)” value was 10.3.
For “AAAATACATGGACACACACACACACCGATATATATA [CACACA_site5885]”, the “gcPBM binding intensity (ln)” value was 10.7.
“ATATAATATATATACAAACACACAATTGTGTCCACA [CACACA_site1748]” was tested, and the “gcPBM binding intensity (ln)” value was 10.1.
With “AAATATACATATATATGTACATATAAATATATTTTA [XGTACX_site5266]” the “gcPBM binding intensity (ln)” value was 9.71.
For “TTATCTTACATATATCATTAAATCATATAACAAAAA [XGTACX_negctrl_site517]”, the “gcPBM binding intensity (ln)” value was 9.14.
In the case of “AACCTCATGGACATATGTACACATATACAATTATTT [XGTACX_site6533]”, the “gcPBM binding intensity (ln)” value is reported as 9.84.
“CACAAATATACAAATACACACAAATATACGCATATA [CACACA_site2384]” was tested, and the “gcPBM binding intensity (ln)” value was 10.
GTTATATTTAAAATAGTGCAATAAAAATAATAATAT was tested, and the “gcPBM binding intensity (ln)” value was 9.69.
With “CCTTTATAATTGGAAACACACATATAAAGTATATAT [CACACA_site3900]” the “gcPBM binding intensity (ln)” value was 9.64.
In the case of “TTATGTATTTTAAATGGTTTTATTATAAAGTTTAAT [CACACA_negctrl_site1470]”, the “gcPBM binding intensity (ln)” value is reported as 9.5.
With “TAAAAATTCAATTGCACACGCACATATTTTAATAAG [CACACA_site2014]” the “gcPBM binding intensity (ln)” value was 9.68.
For “AATATAATAATAAAAACACACACGTTGATTGTATTA [CACACA_site2381]”, the “gcPBM binding intensity (ln)” value was 9.98.
With “CGTATGCAAGGAACCACACACACACCCATAAATGTA [CACACA_site749]” the “gcPBM binding intensity (ln)” value was 10.2.
With “AAAAAATAGACATATACACACATATGTATTTATAAT [CACACA_site5225]” the “gcPBM binding intensity (ln)” value was 10.2.
For “TTAAAAATAAAAAATACACACTCTAGTCCATGTAAC [CACACA_site3640]”, the “gcPBM binding intensity (ln)” value was 10.1.
With ATTTCATATAGTGTAGTGCAATTTTAAGCATCAAGG the “gcPBM binding intensity (ln)” value was 9.68.
In the case of “CCTATAATAAATAATACACACATATTGTAAATATAT [CACACA_site7496]”, the “gcPBM binding intensity (ln)” value is reported as 9.92.
In the case of “ATGTCATTATATACATGTACGCATATCTGTTTATCC [XGTACX_site3947]”, the “gcPBM binding intensity (ln)” value is reported as 9.85.
“TTTTTTTTTATAAGGTGTACGTAAAATGTGTAGGTC [XGTACX_site3585]” was tested, and the “gcPBM binding intensity (ln)” value was 9.54.
In the case of “TCACATATTATCTTTACACACTATATATAAGTTTTA [CACACA_site2790]”, the “gcPBM binding intensity (ln)” value is reported as 9.78.
“TCATGTTTTACAAAAACACACAAATGAATATAAACC [CACACA_site1161]” was tested, and the “gcPBM binding intensity (ln)” value was 9.82.
“TGTACATAAATCTAATTATTATATGTGTATATATAT [CACACA_negctrl_site1582]” was tested, and the “gcPBM binding intensity (ln)” value was 9.62.
“TTAAGATAGCAAATATGTACACATTTGTAAAATAAA [XGTACX_site4837]” was tested, and the “gcPBM binding intensity (ln)” value was 9.85.
“AAGGAGCCTATGAACACACACATGTACCTATATTAA [CACACA_site7838]” was tested, and the “gcPBM binding intensity (ln)” value was 9.94.
In the case of “AGAATGAAATAATATACACACAAAGGAAAAATGTAA [CACACA_site3911]”, the “gcPBM binding intensity (ln)” value is reported as 9.98.
With “ATACGTATTTATTTCACACACGTTAAAAAAATAAAA [CACACA_site6027]” the “gcPBM binding intensity (ln)” value was 9.75.
With “TAAGTGCTTTTCAACTGTACCTTCCATTTATTTATT [XGTACX_site8589]” the “gcPBM binding intensity (ln)” value was 9.8.
In the case of “TCTTGACTAAATATATGTACATATATTTTAATAATA [XGTACX_site701]”, the “gcPBM binding intensity (ln)” value is reported as 9.37.
In the case of “ACTACATAATATTTACGTACCTAAAAAATTCTTATA [XGTACX_site509]”, the “gcPBM binding intensity (ln)” value is reported as 9.48.
With “TTCTTATTTTATATTTCACACATTTTTACTATACTT [CACACA_site5817]” the “gcPBM binding intensity (ln)” value was 9.98.
With “GTATTCAAAAGTGAAACATGCAATAATATATATATA [TGCATGCA_site617]” the “gcPBM binding intensity (ln)” value was 9.63.
With “AAAAAAAAAAAAAATACACACGTGAATGTATTGTTT [CACACA_site4856]” the “gcPBM binding intensity (ln)” value was 9.74.
For “TAATATCATTTAGACACACACTCTTACAATATGTAA [CACACA_site5434]”, the “gcPBM binding intensity (ln)” value was 10.1.
In the case of “AGTTCGAATATATAAAGTACATAATTATATATTTGC [XGTACX_site2604]”, the “gcPBM binding intensity (ln)” value is reported as 9.61.
With “TCTATTAACTGATGTGCATGTTATAACCTAGAAGTA [TGCATGCA_site359]” the “gcPBM binding intensity (ln)” value was 9.49.
